{"source": "PubChem BioAssay AID686971", "about": "(National Center for Advancing Translational Sciences (NCATS), 2013)", "note": "The campaign covered roughly 360,000 compounds. About 7,500 (2.1%) were called active. This list was built around the results that the source calls inconclusive (neither active nor inactive); the mix of calls is not that of the screen. Calls come from the whole dose curve; as a rule, active = well fitted cell-killing curve with a large enough effect; inconclusive = small, poorly fitted or top-dose-only effect, or effect the other way, or another doubt; inactive = no such curve, though single readings can be large or run the other way. No potency is given beside an inconclusive call; the fits are too rough. Potency is the fitted concentration of half-maximal effect; tags give direction and shape of the fitted curve."}
{"test": "qHTS for induction of synthetic lethality in tumor cells producing 2HG: qHTS for the HT-1080-IDH1KD cell line;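 for activity, negative = toxicity: 0% = DMSO wells and -100% = cell-free medium wells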", "conditions": "HT-1080 IDH1 knockdown viability, ATP luminescence, 48 h; activity, negative = toxicity: at 46.1 µM (top of the series) unless noted", "procedure,_shortened": "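After a 2 h attachment period, IDH1KD HT-1080 cells took pin-transferred compound for 48 h at 37 °C; ATP-based luminescence after 10 min room-temperature reagent incubation reported viability.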"}
{"smiles": "COc1ccc(CC(N)c2csc(NC(=O)NCCc3ccc(OC)c(OC)c3)n2)cc1", "note": "(configuration not stated)", "Potency": "inconclusive [cytotoxic, single point]"}
{"smiles": "FC(F)(F)c1cccc(-n2c(Cn3nnc4ccccc43)n[nH]c2=S)c1", "Potency": "inactive"}
{"smiles": "CCCn1c2ccccc2c2cnn(CC(=O)NCCCN3CCN(c4ccccc4)CC3)c(=O)c21", "Potency": "inconclusive [cytotoxic, single point]"}
{"smiles": "Cc1cc(C)c(C)c(S(=O)(=O)N2CCN(Cc3nc4ccccc4[nH]3)CC2)c1C", "Potency": "inconclusive [cytotoxic, full curve]"}
{"smiles": "N#CC1=C(N)NC(SCC(=O)Nc2ccc(Br)cc2)=C(C#N)C12CCCCC2", "Potency": "inconclusive [cytotoxic, single point]"}
{"smiles": "Nc1ccccc1NC(=O)CCn1c(=S)[nH]c2ccccc2c1=O", "Potency": "inactive"}
{"smiles": "CC(C)(C)c1nnc(N/N=C/c2ccccc2O)n(N)c1=O", "Potency": "inconclusive [cytotoxic, full curve]"}
{"smiles": "COc1cc(C(=O)NC2CCN(C)CC2)ccc1Nc1ncc2c(n1)N(C1CCCC1)CCC(=O)N2C(C)C", "Potency": "inconclusive [cytotoxic, single point]"}
{"smiles": "COc1ccc(-c2cc(C(F)(F)F)nc(N3CCN(C)CC3)n2)cc1OC", "Potency": "inconclusive [cytotoxic, single point]"}
{"smiles": "CCN(CC)CCCNC(=S)N(CCO)Cc1cc2cc3c(cc2[nH]c1=O)OCCO3", "Potency": "inactive"}
{"smiles": "COc1ccc(C(=O)NCCNc2nc3cc(C)c(C)cc3cc2C)cc1", "Potency": "inactive"}
{"smiles": "O=C(Nc1nnc(-c2cccs2)o1)c1cccc(C(F)(F)F)c1", "Potency": "inconclusive [cytotoxic, single point]"}
{"smiles": "CCOc1ccccc1C(=O)Nc1nnc(SCC(=O)Nc2cc(C)on2)s1", "Potency": "inconclusive [cytotoxic, single point]"}
{"smiles": "O=C(CNC(=O)c1ccc(Br)o1)Nc1ncccc1O", "Potency": "inactive"}
{"smiles": "CCn1c(=O)cc(OCC(=O)N2CCc3ccccc32)c2ccccc21", "Potency": "inactive"}
{"smiles": "CCCOP(=O)(c1ccc(N(C)C)cc1)C(Nc1ccccc1)c1ccc(C)cc1", "note": "(configuration not stated)", "Potency": "active: 14.6 µM"}
{"smiles": "O=C(Nc1cccc(NC(=O)c2cc([N+](=O)[O-])ccc2Cl)n1)c1cc([N+](=O)[O-])ccc1Cl", "Potency": "active: 11.6 µM"}
{"smiles": "Cc1onc(-c2ccccc2)c1C(=O)OCC(=O)N1CCCCC1", "Potency": "inactive"}
{"smiles": "COc1ccc(/C(C)=N/Nc2nc(C)cc(-c3ccccc3)n2)cc1", "Potency": "inconclusive [cytotoxic, partial curve]"}
{"smiles": "CCn1c(SCc2nc(-c3cccs3)no2)nnc1-c1c[nH]c2ccccc12", "activity, negative = toxicity": "inconclusive: -30.4% [cytotoxic]"}
{"smiles": "CC(=O)c1cccc(CN2CCCC(C(=O)Nc3cccc(-n4cccn4)c3)C2)c1", "note": "(configuration not stated)", "Potency": "inactive"}
{"smiles": "C#CCOC(=O)Nc1cnccc1C(F)(F)F", "Potency": "inactive"}
{"smiles": "CCOc1cc(/C=N/O)ccc1OS(=O)(=O)c1ccc(C)cc1", "Potency": "inactive"}
{"smiles": "N=C1C(c2ccccc2)=C(O)CN1c1cccc(S(=O)(=O)N2CCCCC2)c1", "Potency": "inactive"}
{"smiles": "CCOC(=O)c1csc(Nc2nc3ccc(F)cc3s2)n1", "Potency": "inconclusive [cytotoxic, single point]"}
{"smiles": "COc1cc(/C=C/C(=O)Nc2ccc(OC)c(S(=O)(=O)N3CCOCC3)c2)ccc1OC(F)F", "Potency": "inconclusive [cytotoxic, single point]"}
{"smiles": "COCCn1c(C)cc(C(=O)CSc2nc3ccccc3c(=O)n2Cc2ccco2)c1C", "Potency": "inactive"}
{"smiles": "COc1cc(/C=C(\\C#N)C(=O)NC2CCCCC2C)ccc1OS(=O)(=O)c1ccc(C)cc1", "note": "(configuration not stated)", "Potency": "inconclusive [cytotoxic, single point]"}
{"smiles": "COc1cc([N+](=O)[O-])cc(/C=N/NC(=O)c2cc(-c3ccccc3)nc3ccccc23)c1O", "Potency": "inconclusive [cytotoxic, full curve, poor fit]"}
{"smiles": "CC(C)CNS(=O)(=O)c1ccc(S(=O)(=O)N2CCCN(Cc3ccccc3)C2)cc1", "Potency": "inconclusive [cytotoxic, single point]"}
{"smiles": "COc1ccc(Cn2cc(CN3CCc4onc(-c5ccc(Br)cc5)c4C3=O)nn2)cc1", "Potency": "inconclusive [cytotoxic, single point]"}
{"smiles": "Cc1cc(C)c2c(N)c(C(=O)N/N=C/c3cccs3)sc2n1", "Potency": "inconclusive [cytotoxic, single point]"}
{"smiles": "CC1CC(C)CN(C(=O)CCn2c(=O)oc3ccccc32)C1", "note": "(configuration not stated)", "Potency": "inactive"}
{"smiles": "COc1cc(-c2cnc3c(NC=O)cc(-c4ccc(C)cc4)cn23)cc(OC)c1OC", "Potency": "inconclusive [cytotoxic, full curve, poor fit]"}
{"smiles": "COc1ccc(Cl)cc1NC(=O)CN(C)CC(=O)Nc1cc(OC)c(OC)c(OC)c1", "Potency": "active: 8.2 µM"}
{"smiles": "O=C(NCCO)C(=O)Nc1cc2c3c(c1)CCN3C(=O)CC2", "Potency": "inactive"}
{"smiles": "CCOC(=O)N1CCN(C(=O)c2ccc(Cn3c(=S)[nH]c4cc(C(=O)OC)ccc4c3=O)cc2)CC1", "Potency": "inactive"}
{"smiles": "COc1ccccc1/C=C/C1(C(=O)NC2CCCC2)CC(=O)N1c1ccc(F)cc1", "note": "(configuration not stated)", "Potency": "active: 8.2 µM"}
{"smiles": "Cc1ccsc1-c1cc2nc(NCCCN(C)C)n(C)c(=O)c2s1", "Potency": "inconclusive [cytotoxic, partial curve]"}
{"smiles": "CCOC(=O)c1sc(Nc2cccc(Cl)c2)nc1C", "Potency": "inconclusive [cytotoxic, single point]"}
{"smiles": "Cc1ccccc1NC(=O)Nc1nc(C(N)C2CCCCC2)cs1", "note": "(configuration not stated)", "Potency": "inconclusive [cytotoxic, single point]"}
{"smiles": "CCCCn1c(N)c(N(Cc2ccccc2OC)C(=O)COc2ccccc2OC)c(=O)[nH]c1=O", "Potency": "inactive"}
{"smiles": "O=C(CCN1Cc2ccccc2C1)c1ccc2c(c1)OCCO2", "Potency": "active: 11.2 µM"}
{"smiles": "CC(=O)Nc1sc2c(c1-c1nc3ccccc3s1)CCN(C(C)C)C2", "Potency": "active: 11.6 µM"}
{"smiles": "O=[N+]([O-])c1cc(/C=N/N/C(=N/c2ccccn2)c2ccccn2)ccc1O", "Potency": "inconclusive [cytotoxic, partial curve]"}
{"smiles": "COc1ccccc1OCc1nc2ccccc2s1", "Potency": "inconclusive [cytotoxic, partial curve]"}
{"smiles": "C=Cc1cc2c(cc1O)CCC1C2CCC2(C)C(O)CCC12", "note": "(configuration not stated)", "Potency": "inconclusive [cytotoxic, single point]"}
{"smiles": "Cc1ccccc1S(=O)(=O)NC(=O)C1(C)CCN1C(=O)CC1CCCCC1", "note": "(configuration not stated)", "Potency": "inconclusive [rising, single point]"}
{"smiles": "O=C(NCc1ccccc1)C1Nc2ccc(OC(F)(F)F)cc2C2C=CCC12", "note": "(configuration not stated)", "Potency": "inactive"}
{"smiles": "COc1ccc(CN2C(=O)N(c3ccc(OC)cc3)C(=O)C2CC(=O)Nc2ccccc2)cc1", "note": "(configuration not stated)", "Potency": "inactive"}
{"smiles": "CCOc1ccccc1OCCCC(=O)Nc1nc2ccccc2[nH]1", "Potency": "inactive"}
{"smiles": "COc1ccc(-c2nc(-c3cccs3)c(-c3cccs3)[nH]2)cc1O", "Potency": "inconclusive [cytotoxic, single point]"}
{"smiles": "Cc1nc(C(F)(F)F)ccc1C(=O)N1CCC1(C)C(=O)NS(=O)(=O)c1ccc2ccccc2c1", "note": "(configuration not stated)", "Potency": "inconclusive [cytotoxic, single point]"}
{"smiles": "Cc1cccc(C)c1NC(=O)C1c2ccccc2OCC(=O)N1Cc1ccccc1", "note": "(configuration not stated)", "Potency": "inconclusive [cytotoxic, single point]"}
{"smiles": "CCOc1cc(/C=C2\\C(=O)N(c3nc(-c4ccc(Br)cc4)cs3)N=C2c2ccccc2)ccc1O", "Potency": "inconclusive [cytotoxic, single point]"}
{"smiles": "COCCC(=O)Nc1c(-c2ccccc2)c2cc(Br)ccc2[nH]c1=O", "Potency": "inactive"}
{"smiles": "CCOc1ccc(NS(=O)(=O)c2cnc(Cl)c(Cl)c2)cc1", "Potency": "inconclusive [cytotoxic, single point]"}
{"smiles": "Cc1ccccc1Cn1c(C)nc2ccccc21", "Potency": "inconclusive [cytotoxic, partial curve]"}
{"smiles": "COc1ccc(-n2cc(-c3ccccc3)c3c(N4CCOCC4)ncnc32)cc1", "Potency": "inconclusive [cytotoxic, single point]"}
{"smiles": "CC[N+](CC)(CC)CCOc1ccc(/C=C/c2ccccc2)cc1", "Potency": "active: 16.4 µM"}
{"smiles": "Cc1cccc(C)c1OCC(O)CN(Cc1ccccc1O)C1CCCCC1", "note": "(configuration not stated)", "Potency": "inconclusive [cytotoxic, single point]"}
{"smiles": "COc1ccc(CN2CC(=O)N(c3ccccc3OC)C2=S)cc1OC", "Potency": "inactive"}
{"smiles": "CN(Cc1ccccc1)C(=O)[C@@H]1CCCN1C(=O)[C@@H]1CCCN1C(=O)c1ccc(Cl)cc1", "activity, negative = toxicity": "inconclusive: 31.8%"}
{"smiles": "O=C(CCl)Nc1cccc(Oc2ccccc2)c1", "Potency": "inconclusive [cytotoxic, single point]"}
{"smiles": "CCn1nnc(-c2ccccc2NS(=O)(=O)c2ccc(C(=O)OC)cc2)n1", "Potency": "inconclusive [cytotoxic, single point]"}
{"smiles": "O=C(OCC(=O)N1CCCC1=O)c1nc(Cl)c(Cl)c(Cl)c1Cl", "Potency": "inconclusive [cytotoxic, single point]"}
{"smiles": "CC(/C=N/Nc1nc2ccccc2[nH]1)=C\\c1ccccc1", "Potency": "inconclusive [cytotoxic, single point]"}
{"smiles": "COCCc1ccc(OC2(C)CCN(Cc3cccc(OC)c3OC)C2)cc1", "note": "(configuration not stated)", "Potency": "inactive"}
{"smiles": "CCN(CC)CCCn1c2c(c(SCC(=O)Nc3ccc(OC(F)(F)F)cc3)nc1=O)CCC2", "Potency": "inactive"}
{"smiles": "CCOC(=O)C1CCCN(c2oc(-c3ccc(OC)cc3)nc2C#N)C1", "note": "(configuration not stated)", "Potency": "inactive"}
{"smiles": "O=C(CNC(=O)c1ccccc1O)N/N=C/c1cc(Br)ccc1OC(=O)/C=C/c1ccco1", "Potency": "inconclusive [cytotoxic, full curve]"}
{"smiles": "COc1cc(N=Nc2cccc(S(N)(=O)=O)c2)c2ccccc2c1N", "Potency": "active: 14.6 µM"}
